From article PMC4336329 (PLoS ONE, 2015)
Screen size: about 310,000 compounds; about 2,200 (0.71%) showed an effect of 50% or more. Effects have a minus sign here. The list shows a part of the results.

Target: human ether-à-go-go-related gene (hERG) potassium channel (human, UniProt Q12809)
Assay: primary screen, population patch clamp on CHO cells stably expressing hERG

human ether-à-go-go-related gene (hERG) potassium channel, sequence (Q12809 whole entry, looked up): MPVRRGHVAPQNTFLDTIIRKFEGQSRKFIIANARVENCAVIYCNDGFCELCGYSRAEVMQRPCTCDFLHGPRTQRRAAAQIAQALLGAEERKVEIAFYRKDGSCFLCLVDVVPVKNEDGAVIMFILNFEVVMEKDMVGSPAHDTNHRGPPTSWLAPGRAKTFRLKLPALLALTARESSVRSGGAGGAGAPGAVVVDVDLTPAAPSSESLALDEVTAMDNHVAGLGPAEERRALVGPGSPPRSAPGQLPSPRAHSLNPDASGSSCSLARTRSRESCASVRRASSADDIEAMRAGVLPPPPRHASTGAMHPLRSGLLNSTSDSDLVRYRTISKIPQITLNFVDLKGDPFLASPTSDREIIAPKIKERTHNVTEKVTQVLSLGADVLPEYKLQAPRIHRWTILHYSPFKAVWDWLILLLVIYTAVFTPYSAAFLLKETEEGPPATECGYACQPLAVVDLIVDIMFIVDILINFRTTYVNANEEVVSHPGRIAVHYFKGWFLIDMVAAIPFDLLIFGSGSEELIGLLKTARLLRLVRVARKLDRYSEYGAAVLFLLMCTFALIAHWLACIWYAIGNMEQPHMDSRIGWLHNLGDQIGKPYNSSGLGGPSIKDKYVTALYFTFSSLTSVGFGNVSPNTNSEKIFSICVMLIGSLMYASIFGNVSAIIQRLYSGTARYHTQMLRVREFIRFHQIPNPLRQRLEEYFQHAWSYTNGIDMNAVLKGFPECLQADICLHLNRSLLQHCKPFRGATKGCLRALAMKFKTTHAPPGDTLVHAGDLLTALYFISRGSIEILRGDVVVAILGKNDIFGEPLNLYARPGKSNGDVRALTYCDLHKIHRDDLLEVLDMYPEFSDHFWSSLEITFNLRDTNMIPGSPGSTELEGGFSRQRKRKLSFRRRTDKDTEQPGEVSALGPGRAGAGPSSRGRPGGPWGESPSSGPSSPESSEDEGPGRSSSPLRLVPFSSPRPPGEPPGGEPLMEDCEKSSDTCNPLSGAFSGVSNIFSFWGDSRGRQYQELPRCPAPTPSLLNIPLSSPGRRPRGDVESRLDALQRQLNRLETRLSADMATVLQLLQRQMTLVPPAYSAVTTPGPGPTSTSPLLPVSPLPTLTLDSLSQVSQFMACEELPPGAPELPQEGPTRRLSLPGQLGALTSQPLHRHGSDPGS

| SMILES | hERG current change (%, negative = inhibition) at 1uM [%] |
| --- | --- |
| Brc1ccc(CSc2nnc3ccccn23)cc1 | 2.56 |
| O=C(Oc1cccc(/C=N/Nc2nc(Nc3ccccc3)nc(N3CCOCC3)n2)c1)c1ccco1 | 8.93 |
| Clc1ccccc1CN1CCN(c2ncccn2)CC1 | 10.9 |
| Cc1cccc(NC(=O)c2cc([N+](=O)[O-])ccc2Cl)c1O | 8.28 |
| CCOC(=O)Cc1[nH]nc2c1C(C1C=CCCC1)C(C#N)=C(N)O2 (stereo not shown) | 0.387 |
| COc1cccc(/C=C/C(=O)Oc2ccc(C(=O)c3ccc(F)cc3)cc2)c1 | 15.2 |
| COc1nc(Cc2ccc(Cl)cc2)nc2ccccc12 | 1.6 |
| Cc1cccc(OCCn2cnc(Cl)c2Cl)c1 | 0.945 |
| Cc1ccccc1C(=O)N/N=C/c1ccccn1 | 1.37 |
| Cc1ccc(NC(=S)NC2CCCC2)c(C)c1 | 8.96 |
| O=C(Nc1cccc2ccccc12)c1ccccc1Cl | 9.52 |
| Cc1cccc(OC2CCN(Cc3nc(CC4CC4)no3)CC2)c1 | 7.08 |
| O=C1NCCCc2c1oc1cc(Br)c(O)c(Br)c21 | -6.17 |
| O=C(O)c1cccc(Nc2ccc3nonc3c2[N+](=O)[O-])c1 | 5.77 |
| Cc1ccc(CN(C)C(=O)c2ccc(NS(=O)(=O)c3ccc4[nH]c(=O)[nH]c4c3)cc2)cc1 | 20.3 |
| O=C(COC(=O)c1cc(S(=O)(=O)N2CCOCC2)ccc1F)Nc1ccc(Cl)cn1 | -2.03 |
| CCOc1ccc(S(=O)(=O)N2CCOCC2)cc1NC(=O)CN1C(=O)NC2(CCCC2)C1=O | 12.7 |
| CCN(c1ccccc1)S(=O)(=O)c1cc(C(=O)Oc2ccc3c(C)cc(=O)oc3c2)ccc1C | 1.76 |
| COc1ccc(-c2ccnc3cc(C(=O)O)nn23)cc1 | 18.7 |
| C/C=C/c1ccc(OCCn2cncn2)c(OC)c1 | 4.5 |

| SMILES | hERG current change (%, negative = inhibition) at 1uM [%] |
| --- | --- |
| CC(C)N1CCC(NC(=O)NC2CCCCC2)CC1 | 12.8 |
| CCOc1ccc(NC(=S)N2CCN(S(C)(=O)=O)CC2)cc1 | 10.9 |
| O=C(c1ccc2c(c1)N(Cc1ccc(F)cc1)C(=O)CS2)N1CCOCC1 | -1.67 |
| CN(C)C(=O)c1cc(C(=O)c2ccccc2C(F)(F)F)c[nH]1 | 7.42 |
| CC(C)Cc1nnc(NC(=O)c2ccc3c(c2)NC(=O)C(C)S3)s1 (stereo not shown) | -9.27 |
| CN(C)c1nc(NS(=O)(=O)c2ccc(Cl)cc2)nc(N(C)C)n1 | -6.7 |
| O=C(CN1CCSCC1)N/N=C/c1ccccc1F | -6.58 |
| CO/N=C(/CNC(=O)c1cccc(Cl)c1)c1ccc(Cl)cc1 | 11.6 |
| O=C(c1cc(C2CC2)nc2ccc(Br)cc12)N1N=C(C(F)F)CC1(O)C(F)F (stereo not shown) | 2.1 |
| O=C(Nc1ccccc1)Nc1ccc(Nc2ccccc2)cc1 | 11.6 |
| O=C(O)CC/C(=N\Nc1ccc(Cl)cc1)c1cccs1 | 18.5 |
| Cc1cc(=O)oc2cc(OCC(=O)NC3CCCCC3)ccc12 | -9.25 |
| CC1CCN(c2nc3ccccc3nc2C(C#N)C(=O)OC2CCCCC2)CC1 (stereo not shown) | 10.8 |
| COC(=O)CC(=O)CSc1nc2c(cc1C#N)CCC2 | 13.6 |
| NC(=O)c1ccc(Nc2ccc3nonc3c2[N+](=O)[O-])cc1 | 14.1 |
| Cc1ccc(N2CCN(CC3CC=CCC3)CC2)cc1 (stereo not shown) | -8.75 |
| Cc1cc(C)nc(N/N=C/c2ccccc2OCc2ccccc2)n1 | 9.26 |
| Cc1ccc(-c2nn(-c3ccccc3)cc2C(=O)OCC(=O)Nc2ncc(Cl)cc2Cl)cc1 | 6.91 |
| O=C(CSc1nnnn1-c1ccccc1)Nc1nc(-c2ccccc2)ns1 | 14.1 |
| CCOC(=O)/C(N=Nc1ccc(Cl)cc1)=C(/O)c1ccc([N+](=O)[O-])cc1 | 8.05 |

| SMILES | hERG current change (%, negative = inhibition) at 1uM [%] |
| --- | --- |
| CCN(CC)C(=O)c1[nH]cnc1C(=O)Nc1ccc(Cl)cc1 | 15.1 |
| Cc1cccc(N2C(=O)CC(N(C(=O)c3ccco3)c3cccc(C)c3)C2=O)c1 (stereo not shown) | 5.25 |
| COc1ccccc1NC(=O)CCSc1nnc(-c2ccco2)o1 | 9.46 |
| CC1CCN(c2ccccc2NC(=O)c2cc([N+](=O)[O-])ccc2N2CCOCC2)CC1 | 3.41 |
| O=C(OCC(=O)c1ccc(Cl)s1)c1ccc2ccccc2n1 | 4.97 |
| COc1ccc(-n2c(=O)c3c4c(sc3n3cnnc23)CC(C)CC4)cc1 (stereo not shown) | 9.85 |
| CC(=O)Nc1ccc(S(=O)(=O)N[C@H](C(=O)O)C(C)C)cc1 | 7.15 |
| CN(C(=O)c1ccno1)c1nnc(-c2cnccn2)s1 | 8.19 |
| CC(C)(C)OC(=O)CNC(=O)c1nc[nH]c1C(=O)NCc1ccc(CNC(=O)OC(C)(C)C)cc1 | -1.31 |
| S=c1[nH]nc(-c2ccc(Br)cc2)n1-c1ccc2c(c1)OCCO2 | 10.9 |
| CSc1cccc(NC(=O)/C=C/c2ccc(Cl)cc2)c1 | 7.98 |
| CC(C)(C)C1CCc2onc(C(=O)NC3CCCC3)c2C1 (stereo not shown) | -7.7 |
| COc1ccc(/C=N/NC(=O)CCc2n[nH]c(=O)[nH]c2=O)cc1OC | 2.86 |
| O=C(Cn1nnc2ccccc2c1=O)NC1CCCc2ccccc21 (stereo not shown) | 5.76 |
| Cc1ccc(NC(=O)COC(=O)CCn2c(C)csc2=O)c([N+](=O)[O-])c1 | 7.32 |
| O=c1[nH]c2ccccc2nc1/C=C/c1ccccc1 | 17.5 |
| Cc1oc2c(c(C)cc3oc(=O)c(CC(=O)NCCCO)c(C)c32)c1C | 15.8 |
| CS(=O)(=O)Nc1ccc(C(=O)NC2CCCCC2)cc1 | 9.45 |
